# The other results are listed elsewhere or left out.
# B1: MpL2 (Macrolepiota procera) (protein)
# chain: MSTQVSSGQTYKITNVKAGTVIDLSGEDNKSIIGYPYHSGKNQQWTFNWTGKAWTLRSASSGSYLGIEGTPADGTRLVAVNDPFEWHIWRDEANENAFRIFVPFTNYNLRLSGYGDTTPGTPVQLWWTWEGLHQTWTIDRP
# Legend:
# Assay in all cases: glycan array binding signal (z-score within array); higher = stronger binding
# Conditions in all cases: glycan notation: IUPAC condensed, linker removed; mutation: D109R
# [1] = biological target: Glc(b1-4)Glc
# How it was run: (§1)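 The binding signal is a Z-score computed within each array and averaged over linkers. Arrays of the same protein sequence at different concentrations or buffers were also averaged together. Data originate from 3228 arrays in the Consortium for Functional Glycomics database, kept only where the protein sequence was available.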
# [2] = biological target: Glc(b1-6)Glc
# How it was run: as §1
# [3] = biological target: GlcA(b1-3)Gal
# How it was run: as §1
# [4] = biological target: GlcA(b1-3)GlcNAc
# How it was run: as §1
# [5] = biological target: GlcA(b1-6)Gal
# How it was run: as §1
# [6] = biological target: GlcA3S(b1-3)Gal(b1-4)GlcNAc(b1-2)Man
# How it was run: as §1
# [7] = biological target: GlcA3S(b1-3)Gal(b1-4)GlcNAc(b1-3)Gal(b1-4)Glc
# How it was run: as §1
# [8] = biological target: GlcNAc(a1-3)Gal(b1-4)GlcNAc
# How it was run: as §1
# [9] = biological target: GlcNAc(a1-4)Gal(b1-3)GlcNAc
# How it was run: as §1
# [10] = biological target: GlcNAc(a1-4)Gal(b1-4)GalNAc
# How it was run: as §1
# [11] = biological target: GlcNAc(a1-4)Gal(b1-4)GlcNAc
# How it was run: as §1
# [12] = biological target: GlcNAc(a1-4)Gal(b1-4)GlcNAc(b1-3)Gal(b1-4)Glc
# How it was run: as §1
# [13] = biological target: GlcNAc(a1-4)Gal(b1-4)GlcNAc(b1-3)Gal(b1-4)GlcNAc
# How it was run: as §1
# [14] = biological target: GlcNAc(a1-4)Gal(b1-4)GlcNAc(b1-3)Gal(b1-4)GlcNAc(b1-3)Gal(b1-4)GlcNAc
# How it was run: as §1
# [15] = biological target: GlcNAc(a1-4)Gal(b1-4)GlcNAc(b1-3)Gal(b1-4)[Fuc(a1-3)]GlcNAc(b1-3)Gal(b1-4)[Fuc(a1-3)]GlcNAc
# How it was run: as §1
# [16] = biological target: GlcNAc(a1-6)Gal(b1-4)GlcNAc
# How it was run: as §1
# [17] = biological target: GlcNAc(b1-2)Gal(b1-3)GalNAc
# How it was run: as §1
# [18] = biological target: GlcNAc(b1-2)Man(a1-3)[GlcNAc(b1-2)Man(a1-6)]Man(b1-4)GlcNAc(b1-4)GlcNAc
# How it was run: as §1
# [19] = biological target: GlcNAc(b1-2)Man(a1-3)[GlcNAc(b1-2)Man(a1-6)]Man(b1-4)GlcNAc(b1-4)[Fuc(a1-6)]GlcNAc
# How it was run: as §1
# [20] = biological target: GlcNAc(b1-2)Man(a1-3)[GlcNAc(b1-4)][GlcNAc(b1-2)Man(a1-6)]Man(b1-4)GlcNAc(b1-4)GlcNAc
# How it was run: as §1
# [21] = biological target: GlcNAc(b1-2)Man(a1-3)[GlcNAc(b1-4)][GlcNAc(b1-2)Man(a1-6)]Man(b1-4)GlcNAc(b1-4)[Fuc(a1-6)]GlcNAc
# How it was run: as §1
# [22] = biological target: GlcNAc(b1-2)[GlcNAc(b1-4)]Man(a1-3)[GlcNAc(b1-2)Man(a1-6)]Man(b1-4)GlcNAc(b1-4)GlcNAc
# How it was run: as §1
# [23] = biological target: GlcNAc(b1-2)[GlcNAc(b1-4)]Man(a1-3)[GlcNAc(b1-4)][GlcNAc(b1-2)Man(a1-6)]Man(b1-4)GlcNAc(b1-4)GlcNAc
# How it was run: as §1
# [24] = biological target: GlcNAc(b1-2)[GlcNAc(b1-4)]Man(a1-3)[GlcNAc(b1-4)][GlcNAc(b1-2)[GlcNAc(b1-6)]Man(a1-6)]Man(b1-4)GlcNAc(b1-4)GlcNAc
# How it was run: as §1
# [25] = biological target: GlcNAc(b1-2)[GlcNAc(b1-4)]Man(a1-3)[GlcNAc(b1-4)][GlcNAc(b1-2)[GlcNAc(b1-6)]Man(a1-6)]Man(b1-4)GlcNAc(b1-4)[Fuc(a1-6)]GlcNAc
# How it was run: as §1
# [26] = biological target: GlcNAc(b1-2)[GlcNAc(b1-6)]Man(a1-6)[GlcNAc(b1-2)Man(a1-3)]Man(b1-4)GlcNAc(b1-4)GlcNAc
# How it was run: as §1
# [27] = biological target: GlcNAc(b1-2)[GlcNAc(b1-6)]Man(a1-6)[GlcNAc(b1-2)Man(a1-3)]Man(b1-4)GlcNAc(b1-4)[Fuc(a1-6)]GlcNAc
# How it was run: as §1
# [28] = biological target: GlcNAc(b1-2)[GlcNAc(b1-6)]Man(a1-6)[GlcNAc(b1-4)][GlcNAc(b1-2)Man(a1-3)]Man(b1-4)GlcNAc(b1-4)GlcNAc
# How it was run: as §1
# [29] = biological target: GlcNAc(b1-3)Fuc
# How it was run: as §1
# [30] = biological target: GlcNAc(b1-3)Gal
# How it was run: as §1
# [31] = biological target: GlcNAc(b1-3)Gal(b1-3)GalNAc
# How it was run: as §1
# [32] = biological target: GlcNAc(b1-3)Gal(b1-4)Glc
# How it was run: as §1
# [33] = biological target: GlcNAc(b1-3)Gal(b1-4)GlcNAc
# How it was run: as §1
# [34] = biological target: GlcNAc(b1-3)Gal(b1-4)GlcNAc(b1-2)Man(a1-3)[GlcNAc(b1-3)Gal(b1-4)GlcNAc(b1-2)Man(a1-6)]Man(b1-4)GlcNAc(b1-4)GlcNAc
# How it was run: as §1
# [35] = biological target: GlcNAc(b1-3)Gal(b1-4)GlcNAc(b1-2)Man(a1-3)[GlcNAc(b1-3)Gal(b1-4)GlcNAc(b1-2)Man(a1-6)]Man(b1-4)GlcNAc(b1-4)[Fuc(a1-6)]GlcNAc
# How it was run: as §1
# [36] = biological target: GlcNAc(b1-3)Gal(b1-4)GlcNAc(b1-2)[GlcNAc(b1-3)Gal(b1-4)GlcNAc(b1-6)]Man(a1-6)[GlcNAc(b1-3)Gal(b1-4)GlcNAc(b1-2)Man(a1-3)]Man(b1-4)GlcNAc(b1-4)GlcNAc
# How it was run: as §1
# [37] = biological target: GlcNAc(b1-3)Gal(b1-4)GlcNAc(b1-3)Gal(b1-4)GlcNAc
# How it was run: as §1
# [38] = biological target: GlcNAc(b1-3)Gal(b1-4)GlcNAc(b1-3)Gal(b1-4)GlcNAc(b1-2)Man(a1-3)[GlcNAc(b1-3)Gal(b1-4)GlcNAc(b1-3)Gal(b1-4)GlcNAc(b1-2)Man(a1-6)]Man(b1-4)GlcNAc(b1-4)GlcNAc
# How it was run: as §1
# [39] = biological target: GlcNAc(b1-3)Gal(b1-4)GlcNAc(b1-3)Gal(b1-4)GlcNAc(b1-2)Man(a1-3)[GlcNAc(b1-3)Gal(b1-4)GlcNAc(b1-3)Gal(b1-4)GlcNAc(b1-2)Man(a1-6)]Man(b1-4)GlcNAc(b1-4)[Fuc(a1-6)]GlcNAc
# How it was run: as §1
# [40] = biological target: GlcNAc(b1-3)Gal(b1-4)GlcNAc(b1-3)Gal(b1-4)GlcNAc(b1-2)[GlcNAc(b1-3)Gal(b1-4)GlcNAc(b1-3)Gal(b1-4)GlcNAc(b1-6)]Man(a1-6)[GlcNAc(b1-3)Gal(b1-4)GlcNAc(b1-3)Gal(b1-4)GlcNAc(b1-2)Man(a1-3)]Man(b1-4)GlcNAc(b1-4)[Fuc(a1-6)]GlcNAc
# How it was run: as §1
# [41] = biological target: GlcNAc(b1-3)Gal(b1-4)GlcNAc(b1-3)Gal(b1-4)GlcNAc(b1-3)Gal(b1-4)GlcNAc(b1-2)Man(a1-3)[GlcNAc(b1-3)Gal(b1-4)GlcNAc(b1-3)Gal(b1-4)GlcNAc(b1-3)Gal(b1-4)GlcNAc(b1-2)Man(a1-6)]Man(b1-4)GlcNAc(b1-4)GlcNAc
# How it was run: as §1
# [42] = biological target: GlcNAc(b1-3)Gal(b1-4)GlcNAc(b1-3)Gal(b1-4)GlcNAc(b1-3)Gal(b1-4)GlcNAc(b1-2)Man(a1-3)[GlcNAc(b1-3)Gal(b1-4)GlcNAc(b1-3)Gal(b1-4)GlcNAc(b1-3)Gal(b1-4)GlcNAc(b1-2)Man(a1-6)]Man(b1-4)GlcNAc(b1-4)[Fuc(a1-6)]GlcNAc
# How it was run: as §1
# [43] = biological target: GlcNAc(b1-3)Gal(b1-4)GlcNAc(b1-3)Gal(b1-4)GlcNAc(b1-3)Gal(b1-4)GlcNAc(b1-2)[GlcNAc(b1-3)Gal(b1-4)GlcNAc(b1-3)Gal(b1-4)GlcNAc(b1-3)Gal(b1-4)GlcNAc(b1-6)]Man(a1-6)[GlcNAc(b1-3)Gal(b1-4)GlcNAc(b1-3)Gal(b1-4)GlcNAc(b1-3)Gal(b1-4)GlcNAc(b1-2)Man(a1-3)]Man(b1-4)GlcNAc(b1-4)[Fuc(a1-6)]GlcNAc
# How it was run: as §1
# [44] = biological target: GlcNAc(b1-3)Gal(b1-4)GlcNAc(b1-3)Gal(b1-4)GlcNAc(b1-3)Gal(b1-4)GlcNAc(b1-3)Gal(b1-4)GlcNAc(b1-2)Man(a1-3)[GlcNAc(b1-3)Gal(b1-4)GlcNAc(b1-3)Gal(b1-4)GlcNAc(b1-3)Gal(b1-4)GlcNAc(b1-3)Gal(b1-4)GlcNAc(b1-2)Man(a1-6)]Man(b1-4)GlcNAc(b1-4)GlcNAc
# How it was run: as §1
# [45] = biological target: GlcNAc(b1-3)Gal(b1-4)GlcNAc(b1-3)Gal(b1-4)GlcNAc(b1-3)Gal(b1-4)GlcNAc(b1-3)Gal(b1-4)GlcNAc(b1-2)Man(a1-3)[GlcNAc(b1-3)Gal(b1-4)GlcNAc(b1-3)Gal(b1-4)GlcNAc(b1-3)Gal(b1-4)GlcNAc(b1-3)Gal(b1-4)GlcNAc(b1-2)Man(a1-6)]Man(b1-4)GlcNAc(b1-4)[Fuc(a1-6)]GlcNAc
# How it was run: as §1
binder,measurement,setting,value
B1,glycan array binding signal (z-score),[1],-0.265
same,glycan array binding signal (z-score),[2],-0.245
same,glycan array binding signal (z-score),[3],-0.281
same,glycan array binding signal (z-score),[4],-0.244
same,glycan array binding signal (z-score),[5],-0.242
same,glycan array binding signal (z-score),[6],-0.266
same,glycan array binding signal (z-score),[7],-0.307
same,glycan array binding signal (z-score),[8],-0.279
same,glycan array binding signal (z-score),[9],-0.254
same,glycan array binding signal (z-score),[10],-0.275
same,glycan array binding signal (z-score),[11],-0.243
same,glycan array binding signal (z-score),[12],-0.281
same,glycan array binding signal (z-score),[13],-0.257
same,glycan array binding signal (z-score),[14],-0.266
same,glycan array binding signal (z-score),[15],-0.239
same,glycan array binding signal (z-score),[16],6.07
same,glycan array binding signal (z-score),[17],-0.265
same,glycan array binding signal (z-score),[18],-0.258
same,glycan array binding signal (z-score),[19],-0.212
same,glycan array binding signal (z-score),[20],-0.259
same,glycan array binding signal (z-score),[21],-0.263
same,glycan array binding signal (z-score),[22],-0.263
same,glycan array binding signal (z-score),[23],-0.255
same,glycan array binding signal (z-score),[24],-0.26
same,glycan array binding signal (z-score),[25],-0.263
same,glycan array binding signal (z-score),[26],-0.259
same,glycan array binding signal (z-score),[27],-0.183
same,glycan array binding signal (z-score),[28],-0.27
same,glycan array binding signal (z-score),[29],-0.236
same,glycan array binding signal (z-score),[30],-0.271
same,glycan array binding signal (z-score),[31],-0.247
same,glycan array binding signal (z-score),[32],-0.238
same,glycan array binding signal (z-score),[33],-0.257
same,glycan array binding signal (z-score),[34],-0.223
same,glycan array binding signal (z-score),[35],-0.206
same,glycan array binding signal (z-score),[36],-0.184
same,glycan array binding signal (z-score),[37],-0.252
same,glycan array binding signal (z-score),[38],-0.109
same,glycan array binding signal (z-score),[39],-0.171
same,glycan array binding signal (z-score),[40],-0.214
same,glycan array binding signal (z-score),[41],-0.239
same,glycan array binding signal (z-score),[42],-0.184
same,glycan array binding signal (z-score),[43],-0.199
same,glycan array binding signal (z-score),[44],-0.233
same,glycan array binding signal (z-score),[45],-0.229
